Experiment [1] addresses T1, ot-Vac8∆N-mTagBFP2 (Atg19^152–191-Vac8^19–578-mTagBFP2) (S. cerevisiae) (UniProt P39968).
T1 sequence: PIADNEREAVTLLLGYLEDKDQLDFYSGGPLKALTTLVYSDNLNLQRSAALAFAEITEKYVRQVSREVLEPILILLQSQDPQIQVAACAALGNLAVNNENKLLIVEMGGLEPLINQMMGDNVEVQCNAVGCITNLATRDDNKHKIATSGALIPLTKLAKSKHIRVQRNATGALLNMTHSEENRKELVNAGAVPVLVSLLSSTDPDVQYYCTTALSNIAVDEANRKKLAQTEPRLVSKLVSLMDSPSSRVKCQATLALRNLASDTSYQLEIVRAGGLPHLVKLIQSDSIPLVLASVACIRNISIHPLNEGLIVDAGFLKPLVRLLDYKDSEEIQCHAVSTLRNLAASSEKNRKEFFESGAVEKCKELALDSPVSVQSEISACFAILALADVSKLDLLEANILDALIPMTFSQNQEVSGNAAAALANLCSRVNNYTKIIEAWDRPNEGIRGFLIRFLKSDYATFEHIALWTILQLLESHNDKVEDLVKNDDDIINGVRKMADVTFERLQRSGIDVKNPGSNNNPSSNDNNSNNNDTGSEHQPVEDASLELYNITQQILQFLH
The experiment in a line: recruitment of GFP-tagged prey to oligomer-tethered bait (live-cell fluorescence microscopy); bait fused to the ot peptide and clustered on cytosolic Ape1 oligomers in atg19∆ vac8∆ yeast; cells with GFP puncta counted; only the bait is clustered.

The target in experiment [2] is T2, ot-Vac8∆N-GFP (S. cerevisiae) (UniProt P39968).
T2 sequence: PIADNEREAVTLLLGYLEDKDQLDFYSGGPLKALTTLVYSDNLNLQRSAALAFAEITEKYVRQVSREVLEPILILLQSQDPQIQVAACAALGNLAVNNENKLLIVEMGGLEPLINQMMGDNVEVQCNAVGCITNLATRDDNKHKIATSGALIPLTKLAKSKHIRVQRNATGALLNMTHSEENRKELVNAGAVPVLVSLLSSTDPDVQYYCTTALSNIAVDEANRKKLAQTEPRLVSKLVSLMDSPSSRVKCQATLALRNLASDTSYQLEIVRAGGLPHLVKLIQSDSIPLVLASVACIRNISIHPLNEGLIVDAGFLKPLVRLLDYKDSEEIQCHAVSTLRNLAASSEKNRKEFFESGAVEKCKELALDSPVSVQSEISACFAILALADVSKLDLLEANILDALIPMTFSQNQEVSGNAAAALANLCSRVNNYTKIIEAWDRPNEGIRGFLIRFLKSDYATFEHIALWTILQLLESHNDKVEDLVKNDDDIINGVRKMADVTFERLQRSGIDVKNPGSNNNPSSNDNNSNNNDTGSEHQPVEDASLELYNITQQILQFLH
In words: association of oligomer-tethered bait puncta with µNS particles (live-cell fluorescence microscopy); ot-Vac8∆N-GFP on Ape1 oligomers and Atg11-BFP-µNS particles coexpressed in atg13∆ atg19∆ vac8∆ yeast; both partners clustered; BFP puncta overlapping with GFP puncta counted.

Experiment [3] deals with T3, Atg13-ot-BFP (S. cerevisiae) (UniProt Q06628).
T3 sequence: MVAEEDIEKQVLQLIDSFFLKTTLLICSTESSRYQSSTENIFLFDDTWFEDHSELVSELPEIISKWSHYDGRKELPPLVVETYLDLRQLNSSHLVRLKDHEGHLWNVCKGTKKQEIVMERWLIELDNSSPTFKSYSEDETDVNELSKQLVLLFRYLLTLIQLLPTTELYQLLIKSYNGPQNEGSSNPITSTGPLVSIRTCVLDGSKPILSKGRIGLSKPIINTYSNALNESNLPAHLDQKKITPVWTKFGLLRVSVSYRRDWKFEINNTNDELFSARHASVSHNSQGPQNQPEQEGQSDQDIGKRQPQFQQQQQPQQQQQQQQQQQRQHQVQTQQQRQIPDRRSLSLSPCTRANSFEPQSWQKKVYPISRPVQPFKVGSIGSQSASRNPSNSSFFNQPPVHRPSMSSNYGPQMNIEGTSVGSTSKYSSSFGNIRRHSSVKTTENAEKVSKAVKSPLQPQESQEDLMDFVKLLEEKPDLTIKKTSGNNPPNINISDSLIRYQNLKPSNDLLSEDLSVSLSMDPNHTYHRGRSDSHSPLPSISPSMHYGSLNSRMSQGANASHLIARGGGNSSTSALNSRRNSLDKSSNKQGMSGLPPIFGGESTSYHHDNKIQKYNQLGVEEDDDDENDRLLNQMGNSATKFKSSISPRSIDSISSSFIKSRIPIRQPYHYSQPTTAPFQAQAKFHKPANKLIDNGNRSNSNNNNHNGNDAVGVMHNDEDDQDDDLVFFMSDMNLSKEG
In words: recruitment of GFP-tagged prey to oligomer-tethered bait (live-cell fluorescence microscopy); bait fused to the ot peptide and clustered on cytosolic Ape1 oligomers in atg19∆ vac8∆ yeast; cells with GFP puncta counted; only the bait is clustered.

Results on 3 molecules are retold here after PMC8664900.

No constants are given. Whether binding was seen depends on the method and setting. Some entries that bind do so weakly or less than the wild type. Where a sequence is shown, tags or fusion partners need not be part of it.

B1: Vps15-GFP (protein, UniProt P22219 1-1454)
chain: MGAQLSLVVQASPSIAIFSYIDVLEEVHYVSQLNSSRFLKTCKALDPNGEIVIKVFIKPKDQYSLRPFLQRIRAQSFKLGQLPHVLNYSKLIETNRAGYMIRQHLKNNLYDRLSLRPYLQDIELKFIAFQLLNALKDIHNLNIVHGDIKTENILVTSWNWCILTDFAAFIKPVYLPEDNPGEFLFYFDTSKRRTCYLAPERFNSKLYQDGKSNNGRLTKEMDIFSLGCVIAEIFAEGRPIFNLSQLFKYKSNSYDVNREFLMEEMNSTDLRNLVLDMIQLDPSKRLSCDELLNKYRGIFFPDYFYTFIYDYFRNLVTMTTSTPISDNTCTNSTLEDNVKLLDETTEKIYRDFSQICHCLDFPLIKDGGEIGSDPPILESYKIEIEISRFLNTNLYFPQNYHLVLQQFTKVSEKIKSVKEECALLFISYLSHSIRSIVSTATKLKNLELLAVFAQFVSDENKIDRVVPYFVCCFEDSDQDVQALSLLTLIQVLTSVRKLNQLNENIFVDYLLPRLKRLLISNRQNTNYLRIVFANCLSDLAIIINRFQEFTFAQHCNDNSMDNNTEIMESSTKYSAKLIQSVEDLTVSFLTDNDTYVKMALLQNILPLCKFFGRERTNDIILSHLITYLNDKDPALRVSLIQTISGISILLGTVTLEQYILPLLIQTITDSEELVVISVLQSLKSLFKTGLIRKKYYIDISKTTSPLLLHPNNWIRQFTLMIIIEIINKLSKAEVYCILYPIIRPFFEFDVEFNFKSMISCCKQPVSRSVYNLLCSWSVRASKSLFWKKIITNHVDSFGNNRIEFITKNYSSKNYGFNKRDTKSSSSLKGIKTSSTVYSHDNKEIPLTAEDRNWIDKFHIIGLTEKDIWKIVALRGYVIRTARVMAANPDFPYNNSNYRPLVQNSPPNLNLTNIMPRNIFFDVEFAEESTSEGQDSNLENQQIYKYDESEKDSNKLNINGSKQLSTVMDINGSLIFKNKSIATTTSNLKNVFVQLEPTSYHMHSPNHGLKDNANVKPERKVVVSNSYEGDVESIEKFLSTFKILPPLRDYKEFGPIQEIVRSPNMGNLRGKLIATLMENEPNSITSSAVSPGETPYLITGSDQGVIKIWNLKEIIVGEVYSSSLTYDCSSTVTQITMIPNFDAFAVSSKDGQIIVLKVNHYQQESEVKFLNCECIRKINLKNFGKNEYAVRMRAFVNEEKSLLVALTNLSRVIIFDIRTLERLQIIENSPRHGAVSSICIDEECCVLILGTTRGIIDIWDIRFNVLIRSWSFGDHAPITHVEVCQFYGKNSVIVVGGSSKTFLTIWNFVKGHCQYAFINSDEQPSMEHFLPIEKGLEELNFCGIRSLNALSTISVSNDKILLTDEATSSIVMFSLNELSSSKAVISPSRFSDVFIPTQVTANLTMLLRKMKRTSTHSVDDSLYHHDIINSISTCEVDETPLLVACDNSGLIGIFQ
With B1, the binding result in experiment [1] was “binds”.

B2: Atg11-mTagBFP2-µNS (protein, UniProt Q12527 1-1178)
chain: MADADEYSTAPTQQEITPLQTTATIINAISGECITTNVDFFVSLDKFKQFIARKWKIPPDQLLILLPYGNKLKPSMFKELLINRSFTLNDFYVYDRRLFSLVSKPTPTNLLTSKDSNPMNSPNSNDLTETLEYLIKNSHISQYQGSDTIMIKPMPSPLEDADVDLSRLNYHSVTSLLTTNLGWLSALEIDVHYFKSLIPDIIAHIKRIFDGLTVCSQYLKLYCFDVESLYNSNVQFLNQLVDNGMTSKWEKCFNDTLSKLTALEGDSLQKFINIESLLENEKSVKILNHSINGKLNKIKREIDENASFRDIITVNIDRLRQMFTPNESKFELEDQMAESFEVLVSEMRTRSRNVLDKEEEEFNSQEFLKSMNVMLEKDKKESVKTLFTISQALYSQIGELIDLKKSLQKHAVAILGNIAFTQMEILGIKRLLLNECNKDLELYKKYEVEFAQVEDLPLIYGLYLIEKYRRLSWFQQILSFISNFNQDLELFKQNELRTRNKWVKNFGSIATVFCEDLLSSSDFKRLNEYHSHTSPPNEDEEDENENSIANYRQDLVKVSQAIDNYMTQIKETDVSEPIIDLLSKTLFETKRFHIIYSNFKNNNNNSSNGNSISPEGSIALKSDDVVKGYKTRIKKLESLLHEFQYSDIGHWPQGVLNTHLKPFRGSATSINKKKFLGASVLLEPANISEVNIDSVSQANNHQIQELESNVDDLLHQLQLLKEENNRKSMQISEMGKKISDLEVEKTAYRETLTNLNQELARLTNEEQSHRTEIFTLNASFKKQLNDIISQDNEKIEKLTGDYDDVSKSRERLQMDLDESNKKHEQEVNLLKADIERLGKQIVTSEKSYAETNSSSMEKGEKFETIPLAEDPGRENQISAYTQTLQDRIFDIISTNIFILENIGLLLTFDNNNNIQIRRVKGLKKGTAQSNILDESTQMLDAHDNSLIKSPVFQKLKDEYELIKSVANGSEKDTQQSIFLGNITQLYDNKLYEVAVIRRFKDIETLAKKLTKENKIKRTLLERFQREKVTLRNFQIGDLALFLPTRENVNSVGSMSSSTSSLSSSFSSVDLSTPPPLDAMSIQSSPSVIHSNVINQASISGRDKNKLMRPWAAFTAFEESTRYFLKDEKGLTKGKEWFVGRIVTLEHFVADSPSNNPFRLPKGSVWFQVTAVVVSYQGV
As for B2, the binding result in experiment [2] is listed as “binds”.

B3: Vac8∆N-GFP (domain or fragment, UniProt P39968 19-578)
chain: PIADNEREAVTLLLGYLEDKDQLDFYSGGPLKALTTLVYSDNLNLQRSAALAFAEITEKYVRQVSREVLEPILILLQSQDPQIQVAACAALGNLAVNNENKLLIVEMGGLEPLINQMMGDNVEVQCNAVGCITNLATRDDNKHKIATSGALIPLTKLAKSKHIRVQRNATGALLNMTHSEENRKELVNAGAVPVLVSLLSSTDPDVQYYCTTALSNIAVDEANRKKLAQTEPRLVSKLVSLMDSPSSRVKCQATLALRNLASDTSYQLEIVRAGGLPHLVKLIQSDSIPLVLASVACIRNISIHPLNEGLIVDAGFLKPLVRLLDYKDSEEIQCHAVSTLRNLAASSEKNRKEFFESGAVEKCKELALDSPVSVQSEISACFAILALADVSKLDLLEANILDALIPMTFSQNQEVSGNAAAALANLCSRVNNYTKIIEAWDRPNEGIRGFLIRFLKSDYATFEHIALWTILQLLESHNDKVEDLVKNDDDIINGVRKMADVTFERLQRSGIDVKNPGSNNNPSSNDNNSNNNDTGSEHQPVEDASLELYNITQQILQFLH
As to B3, in experiment [3], the binding result is “binds”.
